# From PubChem BioAssay AID1362 (SRMLSC, 2008)
# This is one part of the list. Further columns of the screen follow, without active or inactive calls. The list favours compounds with an active or inconclusive main result.
# Test: growth inhibition of WT strain, primary screen, mitochondrial fusion inhibitor project, WT and mutant strains, chemical genetic (AID 1362); note: tested in S. cerevisiae
# Conditions: mitochondrial fusion phenotypic screen, at 10 µM
row,SMILES,inhibition [%]
1,CCC(C)n1c(SCc2ccccc2)nc2ccsc2c1=O (configuration not stated),12.9
2,COC(=O)COC(=O)c1ccccc1NC(=O)c1ccccc1,70.3
3,CO/N=C(\Cn1ncc(NC2CCCCC2)c(Br)c1=O)c1ccc(Cl)cc1,37.8
4,COc1ccc(C2CC(c3ccccc3)=NN2C(=O)COC(=O)C2(C)CC2(Cl)Cl)cc1 (configuration not stated),52.4
5,CCOC(=O)C1=C(C)n2c(s/c(=C/c3cccc([N+](=O)[O-])c3)c2=O)=NC1c1ccc(O)c(OC)c1 (configuration not stated),21.3
6,c1ccc2c(c1)nc(CN1CCOCC1)n1c3ccccc3nc21,0.47
7,O=C(Nc1ccc(OCC(F)(F)C(F)F)c(C(F)(F)F)c1)c1ccccc1O,70.8
8,Cc1c(C(=O)NCCSCc2ccc(Cl)cc2Cl)cccc1[N+](=O)[O-],36.1
9,CCO[C@H]1OC(C(=O)Nc2ccccc2)=C[C@@H](c2csc3ccccc23)[C@@H]1CCCO,22.4
10,Cc1ccccc1Nc1nc(NCc2ccco2)c2ccccc2n1,78.5
11,CCOc1cc(S(=O)(=O)Nc2ccccc2CC)ccc1Cl,41.5
12,O=C(Cn1c(/C=C/c2ccccc2)nc2ccccc21)Nc1ccc(F)cc1,53.9
13,Fc1ccccc1NC(=S)Nc1ccc(Br)cc1,39.1
14,O=C(CCN1C(=O)/C(=C\c2cccs2)SC1=S)NC1=NCCS1,22.3
15,O=C(CSc1nnc(-c2c[nH]c3ccccc23)o1)N(Cc1ccccc1)c1ccc(F)cc1,17.4
16,NC(=O)c1ccc(NC(=O)CCCN2C(=O)c3ccccc3C2=O)cc1,-0.3
17,O=C(COC(=O)c1ccncc1)Nc1cc(Cl)c(Cl)cc1Cl,-34.9
18,Cc1ccc(N(CC(O)Cn2c3ccccc3c3ccccc32)S(C)(=O)=O)c(C)c1 (configuration not stated),9.88
19,O=C(Oc1c(Cl)cc(Cl)c2cccnc12)c1cccs1,57.7
20,CC1CC(C)(C)Nc2ccc(N=O)cc21 (configuration not stated),46.3
21,CCOC(=O)c1c(NC(=O)C2CCN(S(=O)(=O)c3cccs3)CC2)sc(C)c1C,12.4
22,CC1CCN(C(=O)CCc2ccc(Oc3cc([N+](=O)[O-])cc([N+](=O)[O-])c3)cc2)CC1,27.1
23,NS(=O)(=O)c1ccc(N2N=C(c3ccc(Br)cc3)CC2c2ccc(F)cc2)cc1 (configuration not stated),59.1
24,Cc1nc2ccccc2n1/N=C/c1ccc([N+](=O)[O-])s1,41.6
25,O=C(Nc1ccc(Oc2cccc3ccccc23)cc1)c1ccco1,67.9
26,O=c1[nH]c(=O)n(Cc2ccco2)c2c1C(C(F)(F)F)(C(F)(F)F)N=C(Cc1ccccc1)N2,8.48

row,SMILES,inhibition [%]
1,C/C(=N\Nc1nc(N2CCCCCC2)nc(N2CCCCCC2)n1)c1ccccc1,5.82
2,Cn1c(-c2c(N)n(-c3ccccc3)c3nc4ccccc4nc23)nc2ccccc21,41
3,Cc1cccc(N2CCN(Cc3nc(-c4cccc(Cl)c4)oc3C)CC2)n1,46.6
4,O=S(=O)(NC1CCCCC1Oc1ccccc1)c1ccc(Cl)cc1 (configuration not stated),14.5
5,Cc1ccccc1N=Nc1c(C)[nH]n(C(N)=S)c1=O,57.4
6,Clc1cccc(COn2c(-c3ccc(Cl)cc3Cl)nc3ncccc32)c1,42.3
7,Cc1cc(CN2CCN(CCC#N)CC2)c(O)c(C2(C)CCCCC2)c1,43.1
8,CCOc1ccc(NC(=S)N(Cc2ccc(N(C)C)cc2)Cc2ccco2)cc1,16.8
9,CNC(=S)Nc1ccc(C23CC4CC(CC(C4)C2)C3)cc1,48.3
10,Cc1c(Cl)cccc1NC(=O)c1nc(C)n(-c2cc(OC(C)C)c(Cl)cc2Cl)n1,55.2
11,CC(C)(C)c1ccc(C(O)CCCN2CCC(C(O)(c3ccccc3)c3ccccc3)CC2)cc1 (configuration not stated),77.7
12,CSc1ccccc1NC(=S)N/N=C/c1cccn1Cc1ccc(F)cc1,43.9
13,CCOC(=O)C1CCN(c2c(C(=O)c3ccccc3)cnc3ccc(CC)cc23)CC1,72.2
14,COc1cc(OC)nc(Oc2ccccc2C(=O)Oc2ccc(F)cc2Cl)n1,29
15,CC(C)/C(=N/Nc1ccccc1[N+](=O)[O-])c1ccccc1,0.75
16,Cc1ccc(CSc2nnc3c(n2)OC2(Nc4ccccc4-3)C(=O)Nc3ccc(F)cc32)cc1 (configuration not stated),45.4
17,O=S(Cc1cc(Sc2ccccc2)nc(-c2ccccc2)n1)c1ccccc1 (configuration not stated),33.1
18,CCN1C(c2ccccc2)C(C)C(=O)C(C)C1c1ccccc1 (configuration not stated),52.6
19,CCOc1cc(CNC(C)(C)CO)cc(Br)c1OCc1ccc(Cl)cc1Cl,85.3
20,COc1ccc(-c2nc(C)ncc2N=Nc2ccccc2)cc1,8.31
21,CCN(Cc1ccccc1)C(c1ccc(C(F)(F)F)cc1)c1nnnn1C(C)(C)C (configuration not stated),-0.15
22,Cc1cccc(OCCCC(=O)Nc2ccc3c(c2)OCO3)c1,0.74
23,COc1ccc(CNC(=O)[C@H](C)[C@@H]2C[C@@]2(C)[C@@H](NC(=O)OCc2ccccc2)c2ccccc2)cc1OC,10.1
24,Cc1cccc(C(=O)NC(NCCc2ccccc2)C(Cl)(Cl)Cl)c1 (configuration not stated),23.8
25,O=C(NCCOc1ccc(Cl)cc1)c1ccc2ccccc2n1,36.5
26,Cc1ccc(-n2cc(CN(C)Cc3nccn3C)c(-c3ccc(F)cc3)n2)cc1,72.5
